“And” between values parts separate entries of the source, which are not always exact repeats. Identical values can stand only once. The list shows a part of the results. Further columns of the screen follow, without active or inactive calls. Most of these compounds were active or inconclusive in the main read-out, so they are no random draw. Potencies come from curve fits of mixed quality, noted in brackets.
Tags describe the fitted curve by direction and shape.

The nature of one assay: qHTS Assay for Lipid Storage Modulators (AID 1519). As to conditions: Drosophila S3 cells, BODIPY lipid droplet/cell ratio, laser cytometry; measured here: cell count channel max response; cells loaded with oleic acid. An outline of the steps: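 Cells seeded at 5,000 per well were treated with compounds over a concentration series and loaded with oleic acid (400 uM, as added). Lipid droplet fluorescence (488 nm excitation, 500-530 nm channel) was read by laser-scanning cytometry and normalized to 20 uM Triacsin C.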
Consider `CC[C@]1(O)CC(O[C@@H]2CC(N(C)C)C(O)C(C)O2)c2c(cc3c(c2O)C(=O)c2c(O)ccc(O)c2C3=O)C1C(=O)OC` (stereo not given in full), for which the max response was 5.92%. On to `O=c1[nH]oc2c1CCNC2`, for which the max response came out at 38%. In the case of `S=C(NC1CCCCC1)N1CCC(c2cnc[nH]2)CC1`, the max response was found to be 121%. On the same count and under the same terms, as for `C[C@@H](N)Cn1ccc2cc(F)c(Cl)cc21`, the figure is 80.8%; as for `COc1cc2c(cc1OC)[C@@H]1C(=O)c3ccc4c(c3OC1CO2)CC(C(C)C)O4` (stereo not given in full), -31.9%; as for `CN(C)C(=O)Oc1cccc([N+](C)(C)C)c1`, 9.93%. Same read-out and setting: as for `Oc1cc2c(cc1O)[C@H]1c3ccccc3CN[C@H]1CC2`, the figure is 43.5%; as for `C=CC1CN2CCC1CC2C(O)c1ccnc2ccccc12` (stereo not given), 20.9%.

For the molecule `C/C(=C\C=C/[C@@H](C)C(=O)O)[C@H]1CN[C@H](C(=O)O)[C@@H]1CC(=O)O`, the max response was 28.8%. Regarding `COc1ccc(CC2NCC(O)C2OC(C)=O)cc1` (stereo not given), the max response worked out at 39.4%. As to `COc1cc2c(cc1O)-c1c(O)c(OC)cc3c1[C@H](C2)N(C)CC3`, the max response turned out to be 67.4%.

`Cn1c(=O)c2[nH]cnc2n(C)c1=O`: the max response is -4.56%.

For `CCCCCCC[n+]1ccc(-c2cc[n+](CCCCCCC)cc2)cc1`, the max response was -22.8%. For the molecule `NP(N)(=O)NC(=O)c1ccc(F)cc1`, the max response turned out to be 4.13%. Same read-out and setting: for `CN1Cc2ccccc2[C@@H]2c3cccc4[nH]cc(c34)C[C@H]21` the value was 15.8%; for `NC(=O)CN1CCCC1=O`, 22%; for `CC1=C(O)C(=O)C=C2C1=CC=C1[C@]2(C)CC[C@@]2(C)C3C[C@](C)(C(=O)O)CC[C@@]3(C)CC[C@@]12C` (stereo not given in full), -29.7%. Consider `CC1=C(O)C(=O)[C@H]2O[C@@H]2C1=O`, for which the max response stood at 29.1%. The same measure, in the same setting: for `CC(C)CN1CC[C@@]2(CCCN(C(=O)Oc3ccccc3)C2)C1` the value was 16.3%; for `CC(C)[C@H](CO)Nc1nc(Nc2cccc(Cl)c2)c2ncn(C(C)C)c2n1`, 27.2%. Take `NCCc1c[nH]c2ccc(O)cc12`: the max response is -82.5%. Turning to `O=C(/C=C\c1ccc(Cl)cc1)N[C@@]12CCC(=O)[C@@H]3Oc4c(O)ccc5c4[C@@]31CCN(CC1CC1)[C@@H]2C5`, the max response came out at 66%. Same read-out and setting: as for `COc1c2c(c(CC=C(C)C)c3oc(=O)c(-c4ccc(O)cc4)c(O)c13)OC(C)(C)C=C2`, the figure is 28.9%; as for `NCC(CC(=O)O)c1ccc(Cl)cc1` (stereo not given), -42.7%; as for `O=C(Oc1ccccc1)N1CCC2(CC1)CN(Cc1ccncc1)C2`, 27.4%. Consider `CN[C@@H]1C[C@H](c2ccc(Cl)c(Cl)c2)c2ccccc21`, for which the max response stood at 43%. On the same count and under the same terms, for `O=C(Nc1cccc(F)c1)N1CCCC2(CCN(C(=O)Oc3ccccc3)CC2)C1` the value was 5.53%; for `CC(C)=CCCC1(C)C=Cc2c(O)c3c(c(CC=C(C)C)c2O1)OC12C(=CC4CC1C(C)(C)OC2(C/C=C(/C)C(=O)O)C4=O)C3=O` (stereo not given), -63%; for `OCC(O)Cc1ccc2c(c1)OCO2` (stereo not given), 17.6%.

For `COc1cc(CNC(=O)CCCC/C=C\C(C)C)ccc1O`, the max response is 67.7% and 73.3%.

As to `Cc1[nH]c2ccc(O)cc2c1CCN`, the max response was determined as 43%. Same read-out and setting: for `c1csc(CN2CCCC3(CCNCC3)C2)n1` the value was 22.5%. `CN1[C@@H]2CC[C@H]1CC(OC(c1ccc(F)cc1)c1ccc(F)cc1)C2` (stereo not given in full): the max response worked out at 19.1%.

As for `CCCN1CCC[C@@H](c2cccc(C#N)c2)C1`, the max response worked out at 17.7%. Same read-out and setting: for `CC[C@@H]1CN2CCc3cc(OC)c(OC)cc3[C@@H]2C[C@@H]1C[C@H]1NCCc2cc(OC)c(OC)cc21` the value was 48.1%; for `Cc1ccc2oc(-c3ccccc3)cc(=O)c2c1`, 134%; for `COc1cc2c(cc1OC)-c1c(OC)c(OC)c(CO)c3c1C(C2)N(C)CC3` (stereo not given), 103%.

As to `O=C(Cc1ccc(Cl)c(Cl)c1)N1CCCC[C@H]1CN1CCCC1`, the max response is 47.9%. `O=C1CCc2c(ccc3ccccc23)O1`: the max response came to 62.6%.

Still in this assay, the particulars now being: Drosophila S3 cells, BODIPY lipid droplet/cell ratio, laser cytometry; measured here: cell number channel AC50; cells loaded with oleic acid.
Turning to `O=c1[nH]oc2c1CCNC2`, the AC50 was 35.5 µM [rising, single point]. `S=C(NC1CCCCC1)N1CCC(c2cnc[nH]2)CC1`: the AC50 was 3.98 µM [rising, partial curve]. Still for that read-out and setting: as for `C[C@@H](N)Cn1ccc2cc(F)c(Cl)cc21`, the figure is 4.47 µM [rising, full curve, poor fit]; as for `COc1cc2c(cc1OC)[C@@H]1C(=O)c3ccc4c(c3OC1CO2)CC(C(C)C)O4` (stereo not given in full), 0.282 µM [falling, full curve]. With `CN(C)C(=O)Oc1cccc([N+](C)(C)C)c1`, the AC50 is 0.631 µM [falling, full curve, poor fit]. On the same count and under the same terms, as for `Oc1cc2c(cc1O)[C@H]1c3ccccc3CN[C@H]1CC2`, the figure is 39.8 µM [rising, single point]. The same measure, in the same setting: as for `COc1ccc(CC2NCC(O)C2OC(C)=O)cc1` (stereo not given), the figure is 0.501 µM [rising, full curve]; as for `COc1cc2c(cc1O)-c1c(O)c(OC)cc3c1[C@H](C2)N(C)CC3`, 14.1 µM [rising, partial curve]; as for `Cn1c(=O)c2[nH]cnc2n(C)c1=O`, 3.55 µM [falling, full curve, poor fit]. On the same count and under the same terms, as for `CN1Cc2ccccc2[C@@H]2c3cccc4[nH]cc(c34)C[C@H]21`, the figure is 0.398 µM [rising, full curve, poor fit]. For `NC(=O)CN1CCCC1=O`, the AC50 was 0.0562 µM [falling, full curve, poor fit]. Consider `CC1=C(O)C(=O)[C@H]2O[C@@H]2C1=O`, for which the AC50 is 2.82 µM [rising, full curve, poor fit].

Take `CC(C)[C@H](CO)Nc1nc(Nc2cccc(Cl)c2)c2ncn(C(C)C)c2n1`: the AC50 was 1.26 µM [rising, full curve, poor fit]. Same read-out and setting: as for `NCCc1c[nH]c2ccc(O)cc12`, the figure is 44.7 µM [falling, partial curve, poor fit].

On to `O=C(/C=C\c1ccc(Cl)cc1)N[C@@]12CCC(=O)[C@@H]3Oc4c(O)ccc5c4[C@@]31CCN(CC1CC1)[C@@H]2C5`, for which the AC50 is 12.6 µM [rising, partial curve, poor fit]. As to `NCC(CC(=O)O)c1ccc(Cl)cc1` (stereo not given), the AC50 is 44.7 µM [falling, partial curve, poor fit].

Turning to `CN[C@@H]1C[C@H](c2ccc(Cl)c(Cl)c2)c2ccccc21`, the AC50 was 6.31 µM [rising, full curve]. Still for that read-out and setting: as for `CC(C)=CCCC1(C)C=Cc2c(O)c3c(c(CC=C(C)C)c2O1)OC12C(=CC4CC1C(C)(C)OC2(C/C=C(/C)C(=O)O)C4=O)C3=O` (stereo not given), the figure is 28.2 µM [falling, partial curve, poor fit]. With `COc1cc(CNC(=O)CCCC/C=C\C(C)C)ccc1O`, the AC50 was 7.08 µM [rising, partial curve, poor fit] and 28.2 µM [rising, partial curve, poor fit]. Still for that read-out and setting: for `CN1[C@@H]2CC[C@H]1CC(OC(c1ccc(F)cc1)c1ccc(F)cc1)C2` (stereo not given in full) the value was 0.794 µM [rising, full curve, poor fit]; for `CCCN1CCC[C@@H](c2cccc(C#N)c2)C1`, 15.8 µM [falling, single point]. Same read-out and setting: for `CC[C@@H]1CN2CCc3cc(OC)c(OC)cc3[C@@H]2C[C@@H]1C[C@H]1NCCc2cc(OC)c(OC)cc21` the value was 0.562 µM [rising, full curve, poor fit]; for `Cc1ccc2oc(-c3ccccc3)cc(=O)c2c1`, 2.24 µM [rising, full curve]. Same read-out and setting: for `COc1cc2c(cc1OC)-c1c(OC)c(OC)c(CO)c3c1C(C2)N(C)CC3` (stereo not given) the value was 1 µM [rising, full curve].

Take `O=C(Cc1ccc(Cl)c(Cl)c1)N1CCCC[C@H]1CN1CCCC1`: the half-maximal activity concentration (AC50) is 31.6 µM [rising, partial curve, poor fit]. As for `O=C1CCc2c(ccc3ccccc23)O1`, the concentration at half-maximal activity (AC50) was 17.8 µM [rising, full curve, poor fit].

For the origin of these results see PubChem BioAssay (NCATS).
